Data on 44 compounds can be found in publication PMC4336329 (PLoS ONE, 2015).

SMILES strings stand for the structures. In all, about 310,000 compounds went through this assay and about 14,000 (4.5%) showed an effect of 50% or more. Effects have a minus sign here. The list shows a part of the results.
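Note: peak tail current of the secondary pulse compared with the same well before compound.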

The target of the test is human ether-à-go-go-related gene (hERG) potassium channel (human, UniProt Q12809). Nature of the test: primary screen, population patch clamp on CHO cells stably expressing hERG.
Chain of human ether-à-go-go-related gene (hERG) potassium channel (Q12809 whole entry, looked up): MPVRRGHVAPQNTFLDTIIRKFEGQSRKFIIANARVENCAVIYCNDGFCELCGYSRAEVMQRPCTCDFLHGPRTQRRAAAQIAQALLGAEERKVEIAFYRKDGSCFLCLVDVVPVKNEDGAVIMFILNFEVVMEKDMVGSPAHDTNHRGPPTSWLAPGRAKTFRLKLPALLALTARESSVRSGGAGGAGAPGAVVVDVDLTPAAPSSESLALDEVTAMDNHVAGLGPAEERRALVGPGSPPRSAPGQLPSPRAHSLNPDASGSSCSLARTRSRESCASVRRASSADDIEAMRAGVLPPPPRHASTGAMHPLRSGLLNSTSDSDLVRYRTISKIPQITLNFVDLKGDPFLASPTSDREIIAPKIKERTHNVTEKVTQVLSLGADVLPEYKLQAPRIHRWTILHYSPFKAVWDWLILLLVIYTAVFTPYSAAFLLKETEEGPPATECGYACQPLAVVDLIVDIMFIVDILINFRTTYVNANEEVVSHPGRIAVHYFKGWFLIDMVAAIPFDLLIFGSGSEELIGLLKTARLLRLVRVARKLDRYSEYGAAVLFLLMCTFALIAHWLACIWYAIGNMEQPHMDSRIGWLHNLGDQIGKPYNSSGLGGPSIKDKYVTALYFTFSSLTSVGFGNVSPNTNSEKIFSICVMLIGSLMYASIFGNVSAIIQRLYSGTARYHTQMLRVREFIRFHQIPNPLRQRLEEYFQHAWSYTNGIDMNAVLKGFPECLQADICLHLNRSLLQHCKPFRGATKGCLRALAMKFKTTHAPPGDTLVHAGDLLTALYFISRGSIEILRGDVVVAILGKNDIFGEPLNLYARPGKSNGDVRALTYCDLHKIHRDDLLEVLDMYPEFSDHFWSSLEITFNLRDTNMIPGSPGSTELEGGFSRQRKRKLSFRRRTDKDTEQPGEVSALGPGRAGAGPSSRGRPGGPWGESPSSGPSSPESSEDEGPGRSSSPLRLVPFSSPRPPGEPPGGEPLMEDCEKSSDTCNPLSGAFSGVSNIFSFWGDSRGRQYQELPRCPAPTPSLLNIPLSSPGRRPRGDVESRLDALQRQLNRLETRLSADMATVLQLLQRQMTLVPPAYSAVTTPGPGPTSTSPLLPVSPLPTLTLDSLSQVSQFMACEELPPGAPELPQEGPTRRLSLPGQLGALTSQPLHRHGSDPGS
`O=C(Cc1cccs1)N1CCN=C1SCc1cccc(F)c1`: the “hERG current change (%, negative = inhibition) at 10uM” value is given as -13.1%.
As for `O=Cc1cn[nH]c1-c1cccc([N+](=O)[O-])c1`, the “hERG current change (%, negative = inhibition) at 10uM” value came out at 5.68%.
For `COCCNC(=O)/C(C#N)=C/c1c(N2CC(C)OC(C)C2)nc2ccccn2c1=O` (centres unmarked), the “hERG current change (%, negative = inhibition) at 10uM” value was -0.67%.
With `NS(=O)(=O)c1ccc(NC(=O)COC(=O)c2cc([N+](=O)[O-])ccc2Cl)cc1`, the “hERG current change (%, negative = inhibition) at 10uM” value amounted to 11.7%.
`CCc1ccc(OCc2ccc(C(=O)NCc3ccccn3)o2)cc1`: the “hERG current change (%, negative = inhibition) at 10uM” value is on record as -29%.
The same measure for `CCOc1cc(/C=C2\SC(=S)N(NC(=O)c3cccnc3)C2=O)ccc1O`: 17.1%; for `CCC1SC2=NC(C)=C(C(=O)OC)C(c3cccs3)N2C1=O` (centres unmarked): -5.95%; for `O=C(CN1C(=O)CSc2ncccc21)NCCN1CCOCC1`: -12.3%.
With `Cc1ccc(C(=O)N(CC(=O)Nc2ccc(Cl)c(Cl)c2)Cc2ccco2)cc1`, the “hERG current change (%, negative = inhibition) at 10uM” value amounted to 11.8%.
As for `O=C(COc1ccc([N+](=O)[O-])cc1)N1CCc2ccccc2C1`, the “hERG current change (%, negative = inhibition) at 10uM” value is on record as -54.5%.
For the compound `CC(=O)Nc1ccc(N2CCOCC2)c(Cl)c1`, the “hERG current change (%, negative = inhibition) at 10uM” value is on record as 5.06%.
On to `CN(c1ccccc1)S(=O)(=O)c1cccc(NS(=O)(=O)c2cccc(C(=O)O)c2)c1`, for which the “hERG current change (%, negative = inhibition) at 10uM” value is -3.52%.
With `COc1ccccc1NC(=S)Nc1cccc2cnccc12`, the “hERG current change (%, negative = inhibition) at 10uM” value is on record as -2.14%.
For `Cn1ncc([N+](=O)[O-])c1C(=O)Nc1nccs1`, the “hERG current change (%, negative = inhibition) at 10uM” value is given as 12.2%.
Turning to `COc1ccc(NC(=S)N2CCC(Cc3ccccc3)CC2)cc1`, the “hERG current change (%, negative = inhibition) at 10uM” value was -12.7%.
The same measure for `CC1CCCN(S(=O)(=O)Cc2ccc(Cl)cc2)C1` (centres unmarked): -5.5%; for `O=C(NCc1n[nH]c(=S)n1-c1ccc(Cl)c(Cl)c1)c1ccc(S(=O)(=O)N2CCCCC2)cc1`: 16.7%.
Consider `CSCCC(NC(=O)c1ccco1)C(=O)OCc1cc([N+](=O)[O-])cc2c1OCOC2` (centres unmarked), for which the “hERG current change (%, negative = inhibition) at 10uM” value is on record as -45.8%.
Regarding `COc1cccc(/C=N/Nc2snc(SC)c2C#N)c1O`, the “hERG current change (%, negative = inhibition) at 10uM” value is on record as 17.6%.
For the compound `COc1cc(OC)cc(C(=O)N[C@H](C(=O)OCC(=O)Nc2ccc(C(C)C)cc2)C(C)C)c1`, the “hERG current change (%, negative = inhibition) at 10uM” value is listed as 8.19%.
Then `Cc1cc(NC(=O)CS(=O)(=O)c2cn(Cc3ccccc3Cl)c3ccccc23)no1`, with -1.29%.
Take `CN(C)CCCn1c(N)c(S(=O)(=O)c2ccccc2)c2nc3ccccc3nc21`: the “hERG current change (%, negative = inhibition) at 10uM” value is recorded as -51.1%.
In the case of `CC(=O)c1cc2c(cc1NC(=O)CN1Cc3ccccc3C1=O)OCO2`, the “hERG current change (%, negative = inhibition) at 10uM” value came out at 3.08%.
In the case of `COC(=O)c1ccc(NC(=O)CN(c2ccc3c(c2)OCO3)S(C)(=O)=O)cc1`, the “hERG current change (%, negative = inhibition) at 10uM” value is on record as -1.62%.
Consider `Cc1ccc(-c2ccc(NC(=O)C3C4C=CC(C4)C3C(=O)O)cc2)o1` (centres unmarked), for which the “hERG current change (%, negative = inhibition) at 10uM” value was 22.1%.
For the compound `O=C(COc1ccc(Cl)cc1)NCCNC(=O)c1cnccn1`, the “hERG current change (%, negative = inhibition) at 10uM” value is on record as 5.3%.
In the case of `COc1cccc(CN2CCNC(=O)C2CC(=O)N(C)Cc2cnccn2)c1OC` (centres unmarked), the “hERG current change (%, negative = inhibition) at 10uM” value is listed as 32.6%.
Then `O=C(NCC1CCCCC1)c1cccnc1`, with 27.1%; and `COc1ccc(NC(=O)c2ccc(NC(=O)C3CC3)cc2)cc1`, with 3.05%; and `O=C1CCCN2N=C(SCC(=O)Nc3cccc(F)c3)SC2=N1`, with -20.5%.
The same measure for `CC(=O)Nc1ccc(SCC(=O)Nc2cc(C)on2)cc1`: 13.7%; for `Cc1c(C(=O)N2CCCC2)c(S(=O)(=O)Nc2ccccc2)c(C)n1C`: 14.5%.
Regarding `CC(C)n1nc(Cc2cccc3ccccc23)c(C#N)c1N`, the “hERG current change (%, negative = inhibition) at 10uM” value is listed as -11.8%.
As to `CCC(C)N(C(=O)CCC(=O)Nc1cc(C)on1)C(C(=O)NC(C)(C)C)c1ccccc1Cl` (centres unmarked), the “hERG current change (%, negative = inhibition) at 10uM” value is -11.3%.
Regarding `CCOC(=O)CN(C)C(=O)CCc1nnc(-c2ccsc2)o1`, the “hERG current change (%, negative = inhibition) at 10uM” value is reported as 13.4%.
As to `COc1ccc(CN(CC(=O)NC2CCCCC2)C(=O)CCCC(=O)Nc2ccccn2)cc1`, the “hERG current change (%, negative = inhibition) at 10uM” value is -11.6%.
The same measure for `COc1ccc2oc(C(=O)OCC(=O)N3CCCC3=O)c(C)c2c1`: 12.3%; for `COc1ccc(C2=CC(=O)C[C@H](c3ccc(OC)cc3)C2)cc1`: -33%; for `Cc1c(C)c2ccc(OC(C)C(=O)N3C[C@H]4C[C@@H](C3)c3cccc(=O)n3C4)c(C)c2oc1=O` (some centres unmarked): 16.8%.
`COC(=O)C1=C(N)OC2=C(C(=O)CC(C)(C)C2)C1c1ccccc1OCC#N` (centres unmarked): the “hERG current change (%, negative = inhibition) at 10uM” value came out at 9.37%.
In the case of `O=S(=O)(c1cc(Cl)ccc1Br)N1CCCCC1`, the “hERG current change (%, negative = inhibition) at 10uM” value was -22.9%.
Regarding `NC(=O)c1ccccc1N=Cc1ccc2ccccc2c1`, the “hERG current change (%, negative = inhibition) at 10uM” value was determined as 18.3%.
Turning to `CCOC(=O)c1c(NC(=O)CCC(=O)NCc2ccco2)sc2c1CCCC2`, the “hERG current change (%, negative = inhibition) at 10uM” value worked out at 11.3%.
With `C/C(O)=C(/C=NCC(=O)O)C(=O)Nc1nccs1`, the “hERG current change (%, negative = inhibition) at 10uM” value is 7.41%.
